Counter-ions that a name gives are not always drawn. The list shows a part of the results. The data scatter; read single values as rough.

The source of these data is the supplement of paper PMC11880418.

Holding throughout (experiment): ALDHbr (CSC) cell proportion score relative to DMSO vehicle (ratio to DMSO); breast (SUM159) / gastric (MKN45) / pancreatic (PANC1) / colon cancer lines; ALDHbr cells have high ALDH activity and are rich in cancer stem cells (CSC); higher = more CSC (ALDHbr) cells remaining
What all share (settings): 10 µM; 72 h

The test system of test [1] is MKN45.
The subject of test [2] is PANC1.
Test [3] concerns SUM159.
The subject of test [4] is T84.
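Also: High-content imaging of ALDEFLUOR-stained cells with Hoechst-labelled nuclei in 384-well plates, triplicate wells, scored as Z-score against 0.1% DMSO vehicle, negative meaning fewer ALDHbr cells.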

For `O=C(C1CCCCC1)N1CC(=O)N2CCc3ccccc3C2C1` (stereo unspecified) [Praziquantel], the ALDHbr in test [1] is 0.388; in test [2], 0.662; in test [3] it was 1.25; in test [4], 0.858.

In the case of `CCN(CC)CCOC(=O)C(Cc1cccc2ccccc12)CC1CCCO1` (stereo unspecified) [Nafronyl oxalate], the ALDHbr was found to be 1.13 in test [1], 0.918 in test [2], 0.805 in test [3] and 0.946 in test [4].

For `Cc1cc(C(C)(C)C)c(O)c(C)c1CC1=NCCN1` [Oxymetazoline hydrochloride], the ALDHbr came out at 1.03 in test [1], 0.916 in test [2], 0.875 in test [3] and 0.918 in test [4].

For the compound `C=C1C[C@H]2[C@@H]3C=C(C)C4=CC(=O)CC[C@]4(C)[C@H]3CC[C@]2(C)[C@@]1(OC(C)=O)C(C)=O` [Melengestrol acetate], the ALDHbr in test [1] amounted to 0.595; in test [2] it was 0.572; in test [3], 0.684; in test [4] it was 0.794.

As for `CCN(CC)C(=O)C1(c2ccccc2)CC1CN` (stereo unspecified) [Milnacipran hydrochloride], the ALDHbr in test [1] was 1.09; in test [2], 0.909; in test [3] it was 1.02; in test [4] it was 0.973.

On to `Cc1cc2cc3c(C)cc(=O)oc3c(C)c2o1` [Trioxsalen], for which the ALDHbr in test [1] stood at 0.728; in test [2] it was 0.75; in test [3], 2.55; in test [4], 0.782.

Turning to `CCOC(=O)n1ccn(C)c1=S` [Carbimazole], the ALDHbr in test [1] is 0.963; in test [2], 1.04; in test [3], 1.04; in test [4], 0.931.

As to `C#C[C@]1(O)CC[C@H]2[C@@H]3CCC4=Cc5oncc5C[C@]4(C)[C@H]3CC[C@@]21C` [Danazol], the ALDHbr in test [1] was determined as 0.872; in test [2], 0.871; in test [3], 1.02; in test [4] it was 0.852.

On to `CC(C)NCC(O)COc1ccc(COCCOC(C)C)cc1` (stereo unspecified) [Bisoprolol fumarate], for which the ALDHbr in test [1] was 0.864; in test [2], 0.866; in test [3], 0.934; in test [4], 1.

On to `CN1C(C(=O)Nc2ccccn2)=C(O)c2sccc2S1(=O)=O` [Tenoxicam], for which the ALDHbr worked out at 1.06 in test [1], 0.945 in test [2], 1.13 in test [3] and 0.91 in test [4].

In the case of `CCOC(=O)OC(C)OC1=C(C(=O)Nc2ccccn2)N(C)S(=O)(=O)c2ccccc21` (stereo unspecified) [Ampiroxicam], the ALDHbr in test [1] turned out to be 1.1; in test [2], 0.92; in test [3] it was 0.87; in test [4], 0.884.

Turning to `CCC(Cc1c(I)cc(I)c(N)c1I)C(=O)O` (stereo unspecified) [Iopanoic acid], the ALDHbr in test [1] stood at 1.07; in test [2] it was 0.879; in test [3], 1.07; in test [4], 0.94.

Turning to `CN(C)CCC(c1ccc(Br)cc1)c1ccccn1` (stereo unspecified) [Brompheniramine maleate], the ALDHbr in test [1] turned out to be 1.21; in test [2], 0.916; in test [3], 1.03; in test [4], 0.904.

For `CCN(CC)CCNC(=O)c1cc(Cl)c(N)cc1OC` [Metoclopramide monohydrochloride], the ALDHbr was 1.05 in test [1], 0.952 in test [2], 0.872 in test [3] and 0.997 in test [4].

With `CNC(=O)c1c(I)c(C(=O)NCC(=O)Nc2c(I)c(C(=O)O)c(I)c(C(=O)NCCO)c2I)c(I)c(N(C)C(C)=O)c1I` [Ioxaglic acid], the ALDHbr in test [1] amounted to 1.06; in test [2], 0.898; in test [3] it was 1.12; in test [4], 0.962.

Turning to `Cn1c(=O)c2c(ncn2CC2OCCO2)n(C)c1=O` [Doxofylline], the ALDHbr in test [1] was determined as 1.01; in test [2] it was 0.869; in test [3] it was 1.1; in test [4], 0.971.

For the compound `CNCCC=C1c2ccccc2C=Cc2ccccc21` [Norcyclobenzaprine], the ALDHbr in test [1] worked out at 1.08; in test [2], 0.953; in test [3], 0.556; in test [4] it was 0.627.

On to `CN(C)CC/C=C1\c2ccccc2CSc2ccccc21` [Dosulepin hydrochloride], for which the ALDHbr in test [1] was 0.908; in test [2], 1.02; in test [3], 0.646; in test [4] it was 0.804.

In the case of `O=c1[nH]cnc2c1ncn2[C@H]1CC[C@@H](CO)O1` [Didanosine], the ALDHbr in test [1] worked out at 0.987; in test [2] it was 0.976; in test [3], 1.12; in test [4], 1.1.

As to `O=C(O)COC(=O)Cc1ccccc1Nc1c(Cl)cccc1Cl` [Aceclofenac], the ALDHbr in test [1] was determined as 0.915; in test [2], 0.979; in test [3], 0.755; in test [4] it was 0.913.

Take `CCN1CCC[C@H]1CNC(=O)c1c(OC)ccc(Br)c1OC` [Remoxipride Hydrochloride]: the ALDHbr in test [1] was found to be 1.03; in test [2], 1.11; in test [3], 0.716; in test [4] it was 0.991.

Take `CN(C)CCC=C1c2ccccc2COc2ccccc21` [Doxepin hydrochloride]: the ALDHbr in test [1] amounted to 1.05; in test [2], 0.784; in test [3] it was 0.697; in test [4], 0.888.

Turning to `CC(C)(C)NC[C@H](O)c1ccc(O)c(CO)c1` [Levalbuterol hydrochloride], the ALDHbr in test [1] amounted to 1.06; in test [2], 0.875; in test [3] it was 2.07; in test [4], 0.942.

As to `O=C(Nc1ccccc1)OCC(CN1CCCCC1)OC(=O)Nc1ccccc1` (stereo unspecified) [Diperodon hydrochloride], the ALDHbr came to 1.21 in test [1], 0.665 in test [2], 0.926 in test [3] and 0.916 in test [4].

As to `CN(C(=O)CN(CCO)CC(=O)N(C)C(C)(C)Cc1ccccc1)C(C)(C)Cc1ccccc1` [Oxethazaine], the ALDHbr was 0.772 in test [1], 0.992 in test [2], 1.56 in test [3] and 0.0929 in test [4].

For the compound `CCc1oc2ccccc2c1C(=O)c1cc(Br)c(O)c(Br)c1` [Benzbromarone], the ALDHbr in test [1] amounted to 1.03; in test [2], 0.961; in test [3], 0.813; in test [4] it was 0.909.

With `CO/N=C(\C(=O)N[C@@H]1C(=O)N2C(C(=O)O)=C(COC(N)=O)CS[C@H]12)c1ccco1` [Cefuroxime sodium salt], the ALDHbr in test [1] is 1.02; in test [2] it was 0.947; in test [3], 0.69; in test [4] it was 1.06.

`CN1CCN(c2c(F)cc3c(=O)c(C(=O)O)cn(CCF)c3c2F)CC1` [Fleroxacin]: the ALDHbr in test [1] is 1.13; in test [2] it was 0.949; in test [3] it was 1.02; in test [4], 0.927.

With `COc1ccccc1N1CCN(CCCNc2cc(=O)n(C)c(=O)n2C)CC1` [Urapidil hydrochloride], the ALDHbr in test [1] came to 1.08; in test [2], 0.84; in test [3], 1.6; in test [4] it was 1.1.
